Experimental data as given in PubChem BioAssay AID1345082 (National Center for Advancing Translational Sciences (NCATS), 2018).
Values joined by “and” are separate entries in the source; they are usually repeats but may differ in a detail not shown here. Equal entries are not always repeated. The campaign covered roughly 94,000 compounds. About 4,000 (4.3%) were called active. Inconclusive results, whose numbers are uncertain, are shown with a selection of clear calls. The call rests on the fitted dose curve; in most records, active means well fitted inhibition curve with a large enough effect; inconclusive means small, poorly fitted or top-dose-only effect; inactive means no such curve, though single readings can be large or run the other way. A potency beside an inconclusive call is a rough fit, not a confirmed value.

Test: Cytotoxic Profiling in NIH 3T3 Cell Line of Diverse Libraries Using Quantitative High-Throughput Screening; further: nearly all actives have a fitted effect of over 55% in size
Settings: NIH 3T3 viability, CellTiter-Glo ATP luminescence, 48-72 h; activity change, negative = cytotoxicity: at 96.7 µM (top of the series) unless noted; series mostly up to 96.7 µM
How it was run: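 NIH 3T3 cells at 400 cells/well received 23 nL of compound by pintool and were incubated 48 or 72 h at 37 °C. Viability was read as ATP-coupled CellTiter-Glo luminescence.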
On the % scale 0 is the no-effect control and ±100 the full control effect; potency means the concentration at half of the fitted maximal effect; tags describe the fitted curve by direction and shape.

Compound	Potency	activity change, negative = cytotoxicity
CCOCCn1c(=O)[nH]c2cc(C(=O)NCc3sc(C)nc3C)ccc21	inconclusive: 31.6 µM [inhibitor, partial curve, poor fit]	
COCc1ccc(CN2CCC(Oc3ccc(C(=O)NC4CCCC4)cc3Cl)CC2)o1	inconclusive: 44.7 µM [inhibitor, partial curve, poor fit]	
Cn1nc(-c2ccncc2)cc1NC(=O)C(C)(C)C		inactive: -33.7% [at 138 µM]
Cc1cc(C)cc(-c2ccc(CN3CCCC3C(=O)N3CCC(c4ccccc4)CC3)cc2)c1 (stereo not drawn)	inconclusive: 22.4 µM [inhibitor, full curve, poor fit]	
COCCN1C(=O)CC[C@]2(C(=O)Nc3ccccn3)CCCC[C@@H]12		inactive: 0.0247%
N#Cc1ccc(CN2C[C@@H]3C(=O)N(CCN4CCc5ccccc5C4)C(=O)[C@@H]3C2)cc1	inconclusive: 44.7 µM [inhibitor, partial curve, poor fit]	
Cc1ccc2c(c1)nc1n2[C@@H](CNS(=O)(=O)c2ccccc2)COC1	inconclusive: 10 µM [inhibitor, full curve, poor fit]	
CNC(=O)c1cc(C2CC2)nc2c1c(C1CCCN1C(=O)c1ccccc1F)nn2C (stereo not drawn)		inactive: -26.6%
CC(O)c1cc2n(n1)CCN(C(=O)c1cc(=O)n(C)c(=O)n1C)C2 (stereo not drawn)		inactive: -1.37%
O=C([C@@H]1C[C@@H](c2ccc(F)cc2)N([S+](=O)([O-])c2cccnc2)C1)N1CCOCC1	inconclusive: 112 µM [inhibitor, single point]	
Cc1ccc(CNC(=O)NCCc2ncc(C)n2Cc2ccc(F)cc2)cc1	inconclusive: 44.7 µM [inhibitor, partial curve, poor fit]	
CC1=C[C@@H](CO)[C@H](C(C)C)C[C@H]1CC(=O)NCc1ccc(F)cc1	inconclusive: 63.1 µM [inhibitor, partial curve, poor fit]	
O=C(Nc1cccc(Cl)c1)c1nc2sccn2c1-c1ccc(C(F)(F)F)cc1		inactive: -21.3%
Oc1ccc(-c2cc3c(cn2)CN(Cc2ccccc2)CCN3)cc1F	inconclusive: 44.7 µM [inhibitor, partial curve, poor fit]	
Cn1cc(CN2CCOc3cc([S+](=O)([O-])Nc4ccccc4)ccc3C2)cn1		inactive: -20.6% [at 138 µM]
O=C(NCc1ccc(F)cc1)c1ccc2oc(-c3ccnc(Cl)c3)nc2c1		inactive: -13.8%
COc1ccc(C(=O)NC2CCN(c3cc(-c4ccccc4)[nH]n3)CC2)c(OC)c1	inconclusive: 44.7 µM [inhibitor, partial curve, poor fit]	
O=C1CC(c2ccccc2)N(C(=O)CNC(=O)c2cc(C3CC3)[nH]n2)CCCCCCN1 (stereo not drawn)	inconclusive: 56.2 µM [inhibitor, partial curve, poor fit]	
Cn1ncc2c(C(=O)Nc3ccc(F)cc3)cc(-c3cccc(C(F)(F)F)c3)nc21	inconclusive: 50.1 µM [inhibitor, partial curve, poor fit]	
O=C(NC1CCCC1)NC1CCN(c2nccc(Nc3ccccc3Cl)n2)CC1	inconclusive: 44.7 µM [inhibitor, partial curve, poor fit]	
Cc1nc2cnccn2c1C(=O)NCCc1cccc(F)c1		inactive: -4.38% [at 138 µM]

Compound	Potency	activity change, negative = cytotoxicity
CC(=O)c1ccc(NC(=O)O[C@@H]2CO[C@H]3[C@@H]2OC[C@@H]3n2cc(-c3ccccc3)nn2)cc1		inactive: -12% [at 174 µM]
CCN(CC)C(=O)c1cc2c(s1)CCC(C(=O)N1CCN(c3ccccc3)CC1)C2 (stereo not drawn)	inconclusive: 50.1 µM [inhibitor, partial curve, poor fit]	
O=C(NCc1cccs1)C1CCCN(Cc2cccc(-c3ccsc3)c2)C1 (stereo not drawn)	inconclusive: 39.8 µM [inhibitor, partial curve] and inconclusive: 44.7 µM [inhibitor, partial curve, poor fit]	
Cc1ccc([S+](=O)([O-])N2CC(=O)N(Cc3cccc(F)c3)CC(O)C2)cc1 (stereo not drawn)	inconclusive: 70.8 µM [inhibitor, partial curve, poor fit]	
CSc1cccc(NC(=O)Cn2ccn3nc(-c4ccccc4)c(CO)c3c2=O)c1		inactive: -11.7%
O=S(=O)(N[C@H]1CO[C@H]2[C@@H]1OC[C@@H]2n1cc(CC2CCCCC2)nn1)c1cccs1	inconclusive: 50.1 µM [inhibitor, partial curve, poor fit]	
O=C(c1ccc(-c2ccc(N3CCSCC3)nc2)cc1)N1CCOCC1	active: 35.5 µM	
Cc1cccc(CN2CCCN(S(C)(=O)=O)C(c3ccccc3)CC(=O)NCC2)c1 (stereo not drawn)	inconclusive: 56.2 µM [inhibitor, partial curve, poor fit]	
COc1ccc(N2CC(c3noc(-c4cc(C)cc(C)c4)n3)CC2=O)cc1 (stereo not drawn)	inconclusive: 50.1 µM [inhibitor, partial curve, poor fit]	
CCn1cc(S(=O)(=O)N2CCCCC2CCn2cc(-c3ccccc3)nn2)cn1 (stereo not drawn)	inconclusive: 70.8 µM [inhibitor, partial curve, poor fit]	
c1ccc(CCc2nc3nccc(-c4ccsc4)n3n2)cc1		inactive: -29.6%
OCC1(Cc2ccc(F)cc2)CCCN(c2nc3ccccc3s2)C1 (stereo not drawn)	inconclusive: 50.1 µM [inhibitor, partial curve, poor fit]	
CCn1c2c(c(=O)n1Cc1ccccc1)CCN(C(=O)c1cccc(C#N)c1)C2	inconclusive: 50.1 µM [inhibitor, partial curve, poor fit]	
Cc1ccc([S+](=O)([O-])N2CCCC2C(=O)N2CCC(c3nc4ccncc4[nH]3)CC2)cc1 (stereo not drawn)		inactive: -9.61%
COCC(=O)NC[C@H]1CCN(Cc2ccccc2)C[C@H]1N(C)C		inactive: -9.65%
O=C(Nc1ccccc1F)N1CC2CCC(C1)N2Cc1cccc(-c2ccsc2)c1	inconclusive: 70.8 µM [inhibitor, single point]	
COc1ccnc(-c2nnc3ccc(N4CCc5ccccc5CC4)nn23)c1	active: 50.1 µM	
COc1ccc(-c2cc(N3CCCC(NC(=O)c4cc(OC)cc(OC)c4)C3)n[nH]2)cc1 (stereo not drawn)	inconclusive: 50.1 µM [inhibitor, partial curve, poor fit]	
O=C(C1CCCN(Cc2cccc(-c3cccs3)c2)C1)N1CCC(c2ccccc2)CC1 (stereo not drawn)	active: 39.8 µM	
O=c1cc2c(nn1Cc1ccc(OC(F)(F)F)cc1)CCCCC2	inconclusive: 44.7 µM [inhibitor, partial curve, poor fit]	
O=C(CCc1ccccc1)N1CCCCCC1c1nc(-c2ccccc2)no1 (stereo not drawn)	inconclusive: 50.1 µM [inhibitor, partial curve, poor fit]	

Compound	Potency	activity change, negative = cytotoxicity
CCC(=O)N(C1CCOCC1)C1CCN(S(=O)(=O)c2ccc(C(F)(F)F)cc2)CC1		inactive: -7.52%
CC(C)c1nccn1CCCNC(=O)c1ccc(N2CCCCCC2)nc1	inconclusive: 50.1 µM [inhibitor, partial curve, poor fit]	
Cc1ccc(-c2ccccc2CN2CCN(C(=O)c3ccccc3F)CC2)cc1Cl	inconclusive: 44.7 µM [inhibitor, partial curve, poor fit]	
COc1ccc(C(=O)NC(C(=O)N2CCCC2)C2CCN(C(=O)c3ccc(Cl)cc3)CC2)cc1 (stereo not drawn)		inactive: -8.09%
COc1ccc2ccc(OCc3nc(C(=O)N(C)CC(C)O)co3)cc2c1 (stereo not drawn)	inconclusive: 8.91 µM [inhibitor, full curve, poor fit]	
Cc1ccc(-c2ncc3c(n2)OCCN(Cc2ccc(F)cc2F)C3=O)cc1	inconclusive: 112 µM [inhibitor, partial curve, poor fit]	
CN1CC(=O)N(c2ccc([N+](=O)[O-])cc2)Cc2c1ncnc2N1CCOCC1	inconclusive: 50.1 µM [inhibitor, partial curve, poor fit]	
CCN1CC(C(=O)NCCc2nc(C(C)C)no2)CCC1=O (stereo not drawn)		inactive: 2.62%
O=C(c1ccc2c(c1)OCO2)N1CCc2nc(C3CC3)nc(-c3ccc(Cl)cc3)c2CC1	inconclusive: 50.1 µM [inhibitor, partial curve, poor fit]	
Cc1ccc(-c2cccc(C(=O)N3CC[C@](C)(O)[C@H](C)C3)c2)o1		inactive: -1.99%
CC(C)NC(=O)N(C1CC1)C1CCOC2(CCN(C(=O)c3cc4ccccc4[nH]3)CC2)C1 (stereo not drawn)	inconclusive: 28.2 µM [inhibitor, partial curve, poor fit]	
COc1ccc2c(c1)CN(Cc1ccccc1)C(=O)CCN2CC(O)COc1ccccc1 (stereo not drawn)	inconclusive: 70.8 µM [inhibitor, single point]	
O=C(NCc1cccc(Cl)c1)C1CCN(C(=O)c2ncn3c2COC(c2ccccc2)C3)CC1 (stereo not drawn)		inactive: -18.8%
Cc1cccc(CN2CCCC(Cc3ncc(C)n3C(C)C)C2)c1 (stereo not drawn)	inconclusive: 31.6 µM [inhibitor, full curve, poor fit]	
COc1ccccc1CN1CCC(n2nccc2NC(=O)CCc2ccccc2)CC1	inconclusive: 89.1 µM [inhibitor, partial curve, poor fit]	
CN(C)C(=O)c1nc(-c2ccc(Cl)nc2)c2ccccn12	inconclusive: 89.1 µM [inhibitor, single point]	
O=C(NCCC1CCN(C(=O)Nc2cc(F)ccc2F)CC1)c1ccccc1F		inactive: -24.9%
Cn1ncc2c(C(=O)NC3CCC3)cc(-c3ccc(F)cc3)nc21	inconclusive: 20 µM [inhibitor, partial curve, poor fit]	
CC(=O)N1CCN(C(=O)c2nc3sccn3c2-c2ccc(F)cc2)CC1		inactive: 2.62%
CN(C)C(=O)CC(O)c1cc2n(n1)CCN(C/C=C/c1ccccc1)C2 (stereo not drawn)		inactive: 2.5%
COc1ccc(-c2cccc(C(=O)N3CCN(C(=O)Nc4ccc(Cl)cc4)CC3)c2)nn1	inconclusive: 39.8 µM [inhibitor, partial curve, poor fit]	
